Source: PubChem BioAssay AID504832 (National Center for Advancing Translational Sciences (NCATS), 2011)
Hit rate of the full screen: of about 310,000 compounds, about 18,000 (5.8%) were called active. Inconclusive means that the source gave no clear call. Such entries were picked first, then a sample of the others. The call rests on the fitted dose curve; in most records, active means well fitted inhibition curve with a large enough effect; inconclusive means small, poorly fitted or top-dose-only effect, or another doubt; inactive means no such curve, though single readings can be large or run the other way. Potencies of inconclusive entries are left out as doubtful fits.

Experiment: Primary qHTS for delayed death inhibitors of the malarial parasite plastid, 48 hour incubation
Settings: P. falciparum luciferase growth in erythrocytes; series mostly up to 28.7 µM; activity change, negative = inhibition: at the top concentration
In short: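 Erythrocytes infected with P. falciparum carrying an integrated firefly luciferase reporter (2% hematocrit, 0.1% parasitemia final) were exposed to compounds in RPMI 1640 with 0.5% Albumax at 37 C, 5% CO2. Growth inhibition was scored as reduced luminescence.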
On the % scale 0 is the no-effect control and ±100 the full control effect; potency means the concentration at half of the fitted maximal effect; tags describe the fitted curve by direction and shape.

Question: For `Cc1cccc(NC(=O)C2CCCN(c3ncnc4c3nc3n4CCCCC3)C2)n1` (stereo unspecified), which Potency is on record?
Answer: The Potency was inconclusive [inhibitor, single point].

Question: Which “activity change, negative = inhibition” value does the source give for `COc1cccc(C(=O)N2CCC(C(=O)NCc3ccco3)CC2)c1` here?
Answer: Its value is inactive: 18.6%.

Question: Which Potency does the source give for `CC1Cc2ccccc2N1CC(=O)NC(=O)NC1CCCCC1` (stereo unspecified) here?
Answer: Its Potency is inconclusive [inhibitor, single point].

Question: For `Cc1[nH]n(-c2ccccc2)c(=O)c1C(C[N+](=O)[O-])c1ccc(Cl)cc1` (stereo unspecified), which “activity change, negative = inhibition” value is on record?
Answer: The value was inactive: -13.2%.

Question: With `O=C(CCCCCn1c(=S)[nH]c2ccc(N3CCOCC3)cc2c1=O)NCc1ccc2c(c1)OCO2` as the molecule, how does the Potency read?
Answer: Its Potency is inconclusive [inhibitor, partial curve].

Question: With `COc1ccc(-n2ccc(=O)c3c2CCCC3=O)cc1` as the molecule, how does the “activity change, negative = inhibition” value read?
Answer: The value was inactive: -3.84%.

Question: Which “activity change, negative = inhibition” value does the source give for `COc1ccc(CCCNC(=O)C2CCC(=O)N(CCc3cccc(F)c3)C2)cc1` (stereo unspecified) here?
Answer: Its value is inactive: 2.04%.

Question: With `CC(Sc1nnc(-c2cccs2)n1N)C(=O)NCC1CCCO1` (stereo unspecified) as the molecule, how does the “activity change, negative = inhibition” value read?
Answer: The value was inactive: 28.2%.

Question: With `CC(C)(C)c1ccc(CSc2ccc(S(=O)(=O)N3CCOCC3)cn2)cc1` as the molecule, how does the Potency read?
Answer: The Potency was active: 10.4 µM.

Question: For `COc1cc(/C=C/C(O)=C/C(=O)/C=C/c2ccc(O)cc2)ccc1O`, which Potency is on record?
Answer: Its Potency is active: 11.7 µM.

Question: Which “activity change, negative = inhibition” value does the source give for `CCCCN1Cc2c(nc3cc(-c4ccco4)[nH]n3c2=O)C1=O` here?
Answer: The value was inactive: 5.71%.

Question: Which Potency does the source give for `COC(=O)c1c(C)nc2ccccc2c1C(=O)O` here?
Answer: Its Potency is inconclusive [inhibitor, partial curve, poor fit].

Question: With `C[n+]1ccn(CC(=O)c2cccs2)c1` as the molecule, how does the “activity change, negative = inhibition” value read?
Answer: The value was inactive: -16.9%.

Question: With `CCCc1cc(NCc2ccccn2)n2c(nc3ccccc32)c1C#N` as the molecule, how does the Potency read?
Answer: Its Potency is active: 1.85 µM.

Question: With `Cc1cc(C)cc(NC(=O)c2nnn(Cc3cc(C)ccc3C)c2N)c1` as the molecule, how does the Potency read?
Answer: Its Potency is inconclusive [inhibitor, partial curve, poor fit].

Question: With `CN(C)c1ccc(C(=O)N2CCCC(CCC(=O)N3CCN(c4ccccn4)CC3)C2)cc1` (stereo unspecified) as the molecule, how does the Potency read?
Answer: The Potency was inconclusive [inhibitor, partial curve].

Question: For `CN(c1ccccc1)S(=O)(=O)c1ccc(C(=O)Nc2ccncc2)cc1`, which Potency is on record?
Answer: The Potency was inconclusive [inhibitor, partial curve].

Question: Which Potency does the source give for `O=C(C[n+]1ccc2c(c1)nnn2-c1ccccc1)c1ccc(Cl)cc1` here?
Answer: The Potency was inconclusive [inhibitor, full curve].

Question: Which Potency does the source give for `CC(C)(C)Nc1c(-c2ccc(O)cc2)nc2ccc(Cl)cn12` here?
Answer: Its Potency is active: 10.4 µM.

Question: For `N#Cc1c(-c2ccccc2)cc(-c2ccccc2)nc1SCc1nnc(-c2ccccc2)o1`, which Potency is on record?
Answer: The Potency was inconclusive [inhibitor, partial curve].

Question: For `COc1ccccc1CNC(=O)CN1C(=O)CSc2ccc(S(=O)(=O)N3CCCC3)cc21`, which Potency is on record?
Answer: The Potency was active: 13.1 µM.

Question: For `O=C(CCCCn1c(=O)c2ccccc2n(Cc2ccccc2F)c1=O)NC1CCN(Cc2ccccc2)CC1`, which Potency is on record?
Answer: Its Potency is inconclusive [inhibitor, partial curve, poor fit].

Question: Which Potency does the source give for `CCCCCCCNC(=O)C1(CC2CC(c3cccc(Br)c3)=NO2)CCN(C(=O)OC(C)(C)C)CC1` (stereo unspecified) here?
Answer: Its Potency is inconclusive [inhibitor, full curve, poor fit].

Question: With `O=C(Nc1ccccc1C(=O)Nc1nnc(C(F)(F)F)s1)c1ccccc1` as the molecule, how does the Potency read?
Answer: Its Potency is active: 1.17 µM.

Question: For `Oc1cccc(CN2CCCCC2)c1`, which “activity change, negative = inhibition” value is on record?
Answer: The value was inactive: -9.98%.

Question: For `CC(=O)Nc1cccc(NC(=O)c2cc(-c3cccnc3)nc3ccc(Br)cc23)c1`, which Potency is on record?
Answer: The Potency was active: 5.22 µM.

Question: With `O=C1CN=C(c2ccccc2)c2ccccc2N1Cc1ccc(C(F)(F)F)cc1` as the molecule, how does the Potency read?
Answer: The Potency was inconclusive [inhibitor, partial curve].

Question: Which Potency does the source give for `CCCCn1c(C)cc2c(c1=O)C1O[C@](c3ccsc3)(Cc3ccccc31)O2` here?
Answer: The Potency was inconclusive [inhibitor, partial curve, poor fit].

Question: For `O=C(CC1C(=O)NCCN1CC1CCCCC1)NCCCN1CCOCC1` (stereo unspecified), which Potency is on record?
Answer: The Potency was inconclusive [inhibitor, single point].

Question: For `CC1(O)CC(c2ccc(Cl)cc2)=NN1C(=O)c1ccc(Cl)cc1` (stereo unspecified), which Potency is on record?
Answer: Its Potency is inconclusive [inhibitor, single point].

Question: For `COc1cccc(C(=O)NCC2CCCN(C3CCCCC3)C2)c1OC` (stereo unspecified), which Potency is on record?
Answer: Its Potency is inconclusive [inhibitor, full curve].

Question: For `CC1CCN(S(=O)(=O)c2ccc(NC(=O)C3CC(=O)N(c4ccccc4)C3)cc2)CC1` (stereo unspecified), which Potency is on record?
Answer: The Potency was inconclusive [inhibitor, partial curve].

Question: With `CCOC(=O)N1CCC(N2CCN(S(=O)(=O)c3ccc(C)cc3)CC2)CC1` as the molecule, how does the Potency read?
Answer: The Potency was inconclusive [inhibitor, partial curve, poor fit].

Question: Which Potency does the source give for `O=C(NCc1cccs1)C1CCN(S(=O)(=O)c2ccc3c(c2)OCCO3)CC1` here?
Answer: Its Potency is inconclusive [inhibitor, single point].

Question: Which Potency does the source give for `COc1ccc(NC(=O)CN(C)C(=O)c2cccc(S(=O)(=O)N3CC4(C)CC3CC(C)(C)C4)c2)cc1` (stereo unspecified) here?
Answer: Its Potency is inconclusive [inhibitor, partial curve, poor fit].

Question: With `COc1cccc(C(=O)O/N=C(\N)c2ccc([N+](=O)[O-])cc2)c1OC` as the molecule, how does the “activity change, negative = inhibition” value read?
Answer: Its value is inactive: 65%.

Question: Which Potency does the source give for `C#Cc1ccc(C(=O)Nc2cc(C(N)=O)ccc2N2CCOCC2)cc1` here?
Answer: The Potency was inconclusive [inhibitor, partial curve].

Question: Which Potency does the source give for `CCCCCCCn1c(=O)c(C(=O)Nc2cnccn2)c(O)c2ccccc21` here?
Answer: The Potency was inconclusive [inhibitor, full curve].

Question: For `O=c1[nH]cccc1-c1nc2ccccc2n1Cc1cccc(Cl)c1`, which Potency is on record?
Answer: The Potency was inconclusive [inhibitor, single point].

Question: With `CC1CCCCC12NC(=O)N(CC(=O)NCCc1c[nH]c3ccccc13)C2=O` (stereo unspecified) as the molecule, how does the Potency read?
Answer: Its Potency is inconclusive [inhibitor, partial curve].

Question: For `O=C(Nc1ccc(F)cc1)C(Cc1ccccc1)n1cccc1` (stereo unspecified), which “activity change, negative = inhibition” value is on record?
Answer: The value was inactive: 0%.

Question: With `N#CCSc1nc2c(cc1C#N)CCCC2` as the molecule, how does the “activity change, negative = inhibition” value read?
Answer: The value was inactive: 47%.

Question: For `Nc1nc2c(Cl)ccc(Cl)c2s1`, which Potency is on record?
Answer: The Potency was inconclusive [inhibitor, single point].

Question: With `COc1ccccc1CCCNC(=O)C1CCC(=O)N(Cc2ccccc2F)C1` (stereo unspecified) as the molecule, how does the “activity change, negative = inhibition” value read?
Answer: Its value is inactive: 13.6%.

Question: For `Cc1cccnc1CN1CCN(C(=O)c2cc(COc3ccc4ncccc4c3)on2)CC1`, which “activity change, negative = inhibition” value is on record?
Answer: The value was inactive: 8.47%.

Question: With `CCCCNC(=O)c1onc(CSc2nc3ccccc3[nH]2)c1C(=O)NCCCC` as the molecule, how does the Potency read?
Answer: Its Potency is active: 1.47 µM.
